# Experimental data reported in PubChem BioAssay AID1454 (National Center for Advancing Translational Sciences (NCATS), 2008).
# Hit rate of the full screen: of about 130,000 compounds, about 550 (0.42%) were called active. Calls follow the shape of the dose curve; as a rule, active = well fitted inhibition curve with a large enough effect; inconclusive = small, poorly fitted or top-dose-only effect, or effect the other way; inactive = flat fitted curve, though single readings scatter. Inconclusive results, whose numbers are uncertain, are shown. No potency is given beside an inconclusive call; the fits are too rough.
# Assay: qHTS Assay for Inhibitors of the ERK Signaling Pathway using a Homogeneous Screening Assay; Stimulation with EGF; also: nearly all actives have a fitted effect of over 55% in size
# Details: HEK293-V1b, EGF-stimulated phospho-ERK AlphaScreen; series mostly up to 11.5 µM
# Source text: NIH Chemical Genomics Center [NCGC]
# NIH Molecular Libraries Screening Centers Network [MLSCN]
# Assay Submitter (PI): Dr. Wei Zheng, NCGC/NIH
# The Ras/extracellular-signal-regulated kinase (ERK) mitogen activated protein (MAP) kinase signaling pathway (ERK1/2 cascade) plays a key role in transmitting signals from the cell surface to the nucleus (Nishida and Gotoh 1993; Chang and Karin, 2001). The cascade is initiated by the small G-protein Ras, which recruits Raf from the cytosol, where activation occurs. Alternatively, this pathway can be activated by elevating intracellular cAMP, or by activation of a receptor tyrosine kinase as epidermal growth factor receptor.
# Activation of the ERK pathway is essential in increased cell division and cell survival. […]
# HEK293 cells stably expressing type-1 vasopressin receptor (V1b) were maintained in DMEM medium (Invitrogen, Carlsbad, CA) at 37C under a humidified atmosphere containing 5% CO2 and 95% air. […] The ERK phosphorylation in cells was determined using an AlphaScreen assay kit provided by PerkinElmer. […] AC50 values were determined from concentration-response data modeled with the standard Hill equation. […]
# (10) Detect the assay plate in an EnVision plate reader (PerkinElmer) using the AlphaScreen detection mode. […]
# Potency is read from the fitted curve at half-maximal effect; tags tell the direction and shape of the fitted curve.
row,Compound,Potency
1,O=C(Nc1ccc(-c2nc3ccccc3[nH]2)cc1)c1ccccc1NS(=O)(=O)c1ccc(F)cc1,"inconclusive [inhibitor, single point]"
